Reference: ChEMBL document CHEMBL4888484, “Replenishing the malaria drug discovery pipeline: Screening and hit evaluation of the MMV Hit Generation Library 1 (HGL1) against asexual blood stage Plasmodium falciparum ,using a nano luciferase reporter read-out” (2022)
Screen size: about 150,000 compounds; about 540 (0.36%) showed an effect of 50% or more. Some of the results follow.

System: Plasmodium falciparum
Assay: Primary screen in NF54 nanoGlo assay, in single point, at 2uM, 72h; a lower Z score goes with more inhibition
Assay type: functional, Erythrocyte
Conditions: timepoint 72 hour

**Q.** Which results are given for `COc1cccc(NC(=O)C2[C@H]3C=C[C@@]4(O3)C(C(=O)NC3CCCCC3C)N(C3CCC(C)CC3)C(=O)[C@@H]24)c1` (some centres not stated)?
**A.** % Inhibition: 5%; Z score: -0.76

**Q.** Which results are given for `Cc1ccc(CCC(=O)N2CCC3(CCC(=O)N(CC(N)=O)C3)CC2)cc1`?
**A.** % Inhibition: 2%; Z score: -0.25

**Q.** `Cc1cc(C(=O)N[C@@H](C)C2CC2)c(C)n1Cc1ccncc1` was tested. Which “% Inhibition” value did it give?
**A.** 5%

**Q.** And the Z score?
**A.** -0.62

**Q.** `CCOC(=O)CNC(=O)c1cc(C)nc2onc(-c3ccccc3F)c12` was tested. Which “% Inhibition” value did it give?
**A.** 34%

**Q.** And the Z score?
**A.** -3.85

**Q.** With `CCn1ccnc1CN(C)C(=O)NCc1csc(N2CCOCC2)n1` as the molecule, how does the “% Inhibition” value read?
**A.** -8%

**Q.** What about the Z score of the same molecule?
**A.** 1.39

**Q.** With `Cc1ccc([C@H]2c3cc(OCC(=O)NCCN(C)C)ccc3CCN2C(=O)C2CCCC2)cc1` as the molecule, how does the “% Inhibition” value read?
**A.** -2%

**Q.** What about the Z score of the same molecule?
**A.** 0.22

**Q.** `Cc1oc(C)c(C(=O)N2CCN(c3cnccn3)CC2)c1C` was tested. Which “% Inhibition” value did it give?
**A.** 5%

**Q.** What about the Z score of the same molecule?
**A.** -0.97

**Q.** What does the source list for `Cc1cccc(NC(=O)c2cnn3c(=O)c4c(n(C)c23)CCNC4)c1`?
**A.** % Inhibition: -1%; Z score: 0.09

**Q.** Which results are given for `O=C(c1ccncc1)N1CCc2cc(S(=O)(=O)N3CCCC3)ccc21`?
**A.** % Inhibition: 3%; Z score: -0.31

**Q.** Which “% Inhibition” value does the source give for `COc1cccc(COc2cccc(NCc3noc(C4CC4)n3)c2C)c1` here?
**A.** -13%

**Q.** And the Z score?
**A.** 1.85

**Q.** What does the source list for `CC(C)CN1CCN(Cc2ccn(C(C)C)n2)CC1=O`?
**A.** % Inhibition: -8%; Z score: 0.98

**Q.** Which “% Inhibition” value does the source give for `COc1ccc(NC(=O)c2ccccc2NC(=O)CN(C)C2CCN(C)CC2)cc1` here?
**A.** -6%

**Q.** And the Z score?
**A.** 0.96

**Q.** `CC(=O)N(c1nc(CN(Cc2ccccc2)C(C)C)cs1)C1CC1` was tested. Which “% Inhibition” value did it give?
**A.** -7%

**Q.** What about the Z score of the same molecule?
**A.** 0.95

**Q.** With `Cc1cccc(CC(=O)N2CCC([C@]3(CCc4ccccc4)NC(=O)N(CCN(C)C)C3=O)CC2)c1` as the molecule, how does the “% Inhibition” value read?
**A.** -12%

**Q.** What about the Z score of the same molecule?
**A.** 2.19

**Q.** Which results are given for `CCC(CC)(CC)NCC(=O)Nc1ccc(Br)cn1`?
**A.** % Inhibition: -4%; Z score: 0.63

**Q.** How did the “% Inhibition” value turn out when `O=C(Nc1cccs1)Nc1nc2c(s1)C(=O)NCCC2` was run?
**A.** -5%

**Q.** What about the Z score of the same molecule?
**A.** 0.88

**Q.** For `CCCn1nccc1C(=O)N(C)Cc1csc(-c2ccccc2)n1`, which “% Inhibition” value is on record?
**A.** 3%

**Q.** And the Z score?
**A.** -0.72

**Q.** How did the “% Inhibition” value turn out when `COCCOc1cc2cc(c1)C(=O)NCCNC(=O)N[C@H]1CCN(C(=O)c3ccc(C)c(C)c3)C[C@@H]1OCc1cccc(c1)O2` was run?
**A.** -1%

**Q.** What about the Z score of the same molecule?
**A.** 0.07

**Q.** What does the source list for `CC(C)OC(=O)c1ccccc1S(=O)(=O)Oc1ccc(CN(C(=O)c2ccccc2F)C(C)C)cc1`?
**A.** % Inhibition: -9%; Z score: 1.38

**Q.** How did the “% Inhibition” value turn out when `O=C(c1cnc(-c2cccnc2)nc1)N1CCOC[C@@H](CO)C1` was run?
**A.** -14%

**Q.** What about the Z score of the same molecule?
**A.** 1.72

**Q.** With `Fc1cccnc1OC1CCN(c2nnc(-c3ccco3)n2C[C@H]2CCCCO2)CC1` as the molecule, how does the “% Inhibition” value read?
**A.** -18%

**Q.** What about the Z score of the same molecule?
**A.** 2.1

**Q.** With `Cc1nonc1OCCN[C@@H](C)C(=O)NC1CCCC1` as the molecule, how does the “% Inhibition” value read?
**A.** -13%

**Q.** And the Z score?
**A.** 1.3

**Q.** Which “% Inhibition” value does the source give for `Cn1cc(CNC(=O)N(Cc2ccoc2)C2CC2)nn1` here?
**A.** 9%

**Q.** What about the Z score of the same molecule?
**A.** -1.03

**Q.** Which results are given for `Cc1n[nH]c(C)c1CN(C)C(=O)c1c(CCc2ccccc2)n(Cc2ccncc2)c(C)cc1=O`?
**A.** % Inhibition: -6%; Z score: 0.95

**Q.** What does the source list for `Cn1nccc1S(=O)(=O)N[C@H]1CCN(c2ccc(Cl)cc2)C1`?
**A.** % Inhibition: -12%; Z score: 2.26

**Q.** Which “% Inhibition” value does the source give for `O=S(=O)(Nc1ccc(-c2cc3cc(Cl)ccc3[nH]2)cc1)c1cccc(F)c1` here?
**A.** -10%

**Q.** And the Z score?
**A.** 0.86

**Q.** With `N#Cc1ccc(N2CCN(C(=O)C(F)F)CC2)cn1` as the molecule, how does the “% Inhibition” value read?
**A.** -13%

**Q.** What about the Z score of the same molecule?
**A.** 1.3

**Q.** Which results are given for `CNS(=O)(=O)C[C@H]1CCCN1C(=O)CC1CC(c2ccccc2)C1` (some centres not stated)?
**A.** % Inhibition: -14%; Z score: 1.43

**Q.** How did the “% Inhibition” value turn out when `COc1ccc(N2C(=O)N[C@@H]3C[C@]2(C)Oc2ccc(Cl)cc23)c(OC)c1` was run?
**A.** 0%

**Q.** And the Z score?
**A.** 0.02

**Q.** With `COc1cccc(CN2CC=C(C(=O)NCc3ccc4c(c3)OCO4)CC2)c1` as the molecule, how does the “% Inhibition” value read?
**A.** -8%

**Q.** What about the Z score of the same molecule?
**A.** 1.29

**Q.** How did the “% Inhibition” value turn out when `NC(=O)c1cccnc1N1CC[C@@]2(CCCN(CCC3CCCCC3)C2)C1` was run?
**A.** 11%

**Q.** And the Z score?
**A.** -1.94

**Q.** `O=C(NC1(c2ncon2)CCOCC1)c1ccc(Cl)cc1` was tested. Which “% Inhibition” value did it give?
**A.** -3%

**Q.** What about the Z score of the same molecule?
**A.** 0.31

**Q.** What does the source list for `O=S(=O)(c1ccc(Cl)cc1)N1CC2CC3C=CC2(C1)O3` (configuration not stated)?
**A.** % Inhibition: -12%; Z score: 2.32

**Q.** What does the source list for `Cn1cncc1Cn1ccc(-c2cccc(-c3nccc4occc34)c2)n1`?
**A.** % Inhibition: -8%; Z score: 1.05

**Q.** For `Cc1ccc(C(=O)Nc2ccc(C)n(CC(=O)NCc3ccncc3)c2=O)cc1`, which “% Inhibition” value is on record?
**A.** -9%

**Q.** What about the Z score of the same molecule?
**A.** 1.22

**Q.** Which “% Inhibition” value does the source give for `Nc1ncc(C(=O)NC2(C3CCCCC3)CC2)s1` here?
**A.** 13%

**Q.** What about the Z score of the same molecule?
**A.** -1.66

**Q.** For `COc1ccc(CC(=O)Nc2ccc3c(c2)C(N2CCN(C(C)C)CC2)=Nc2ccccc2O3)cc1`, which “% Inhibition” value is on record?
**A.** -9%

**Q.** And the Z score?
**A.** 1.08

**Q.** For `Cc1cccc(CN(CCc2c[nH]c3ccccc23)Cc2nc(C(=O)N[C@@H](C)c3ccccc3)co2)c1`, which “% Inhibition” value is on record?
**A.** -7%

**Q.** What about the Z score of the same molecule?
**A.** 0.97

**Q.** For `CCc1ccnc(C(=O)N2CC[C@H](c3ncccn3)C2)c1`, which “% Inhibition” value is on record?
**A.** -10%

**Q.** And the Z score?
**A.** 1.27

**Q.** Which “% Inhibition” value does the source give for `CCC(O)CCNC(c1ccc(OC)c(OC)c1)C(F)(F)F` (configuration not stated) here?
**A.** -13%

**Q.** What about the Z score of the same molecule?
**A.** 1.53

**Q.** With `Cc1cc2n(n1)C[C@@](C)(C(=O)NCc1ccc(Cl)cc1)N(Cc1ccc(Cl)cc1)C2=O` as the molecule, how does the “% Inhibition” value read?
**A.** -2%

**Q.** What about the Z score of the same molecule?
**A.** 0.36

**Q.** `CCC(C)N(CC(=O)N1CCc2sccc2C1COc1ccc(C)cc1)C(=O)Nc1ccc(C)cc1` (configuration not stated) was tested. Which “% Inhibition” value did it give?
**A.** 8%

**Q.** And the Z score?
**A.** -1.36

**Q.** How did the “% Inhibition” value turn out when `Cc1ccnc(OCC(=O)NCCc2ccccc2)n1` was run?
**A.** 0%

**Q.** And the Z score?
**A.** 0.03

**Q.** Which results are given for `CC(=O)N1C[C@H]2CC[C@@H](C1)N(C(=O)c1c(F)ccc(C)c1Cl)C2`?
**A.** % Inhibition: 2%; Z score: -0.39

**Q.** How did the “% Inhibition” value turn out when `O=C(Nc1cn[nH]c1)Nc1ccnn1C1CCCC1` was run?
**A.** 4%

**Q.** And the Z score?
**A.** -0.7

**Q.** Which “% Inhibition” value does the source give for `C1CN(CC2OCC3(CO2)COC(CN2CCOCC2)OC3)CCO1` (configuration not stated) here?
**A.** 7%

**Q.** And the Z score?
**A.** -1.17

**Q.** Which results are given for `CCn1cc(S(=O)(=O)N2CCC3(CCC(=O)N(C(C)C)C3)CC2)cn1`?
**A.** % Inhibition: -5%; Z score: 0.59

**Q.** Which results are given for `CCOC1CC1C(=O)N1CCC(c2nc(-c3ccccc3)no2)CC1` (configuration not stated)?
**A.** % Inhibition: 6%; Z score: -0.8

**Q.** Which results are given for `Cc1cccc(-n2ncc3c2CCC[C@@H]3NC2CCOCC2)c1C`?
**A.** % Inhibition: -9%; Z score: 1.46

**Q.** How did the “% Inhibition” value turn out when `O=C(C1CCCC1)N(Cc1ccccc1)c1nc2c(s1)CCCC2` was run?
**A.** 2%

**Q.** And the Z score?
**A.** -0.25

**Q.** Which “% Inhibition” value does the source give for `Cc1ccc(NC(=O)N2Cc3nc(C)n(C)c(=O)c3C2)c(F)c1` here?
**A.** -7%

**Q.** What about the Z score of the same molecule?
**A.** 1.34
